# The supplement of paper PMC3334620
# Over roughly 33,000 sequences, “E-score (-0.5 to 0.5)” has its median near -0.054; the highest 2% begin near 0.39. This is one part of the list.
# Biological target: Ylr278c (UniProt Q05854)
# Assay: PBM E-score (8-mer binding enrichment) (E-score (-0.5 to 0.5)); higher = stronger / more preferred TF binding; most listed sequences are background and not binding sites
# Conditions: protein concentration: 200 nM; construct: GST-DNA-binding domain
# Method: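 Universal 'all 10-mer' protein binding microarrays (Agilent AMADID 015681) probed with GST-tagged S. cerevisiae TFs (full-length or DBD) made by in vitro transcription/translation (PURExpress), about 100-200 nM. Bound TF was detected with fluorescent anti-GST. Each ungapped 8-mer (which stands for itself and its reverse complement) is scored by the PBM enrichment score (E-score), a modified Wilcoxon-Mann-Whitney statistic from -0.5 to +0.5, computed with the Universal PBM Analysis Suite. Scale: above 0.35 generally sequence-specific binding.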
row,Sequence,PBM E-score
1,AAAACACG,0.135
2,ATATGTAG,-0.163
3,ATGCAGAA,-0.16
4,GCAGTAAA,0.147
5,AGCTTAAC,-0.233
6,AGTTTTCC,0.287
7,ATATCATG,-0.198
8,CCTTCTAA,-0.258
9,CGAATACA,0.13
10,ATGTGCAG,-0.133
11,CCTAGGGC,-0.174
12,ATTATTAC,-0.0102
13,CATGAATG,0.00658
14,CGTGGGCC,0.135
15,AGCAAAAT,0.0814
16,CTGGACGA,-0.242
17,AAAACGGC,0.178
18,CGGAACAA,0.427
19,AGTCGGTC,0.159
20,AATGTTAC,0.0415
21,CGGTCTTA,0.264
22,AGCTTCTC,-0.104
23,GGTGGCGA,-0.154
24,CACATACC,-0.0905
25,GAACTTAC,-0.11

row,Sequence,PBM E-score
1,GTCACGAA,-0.0546
2,CGGACAAA,0.425
3,CGATGTGA,-0.163
4,ATACCTGG,-0.0503
5,CAGTGAGA,-0.163
6,TCCAAACA,-0.094
7,CGCTTTTC,0.138
8,GACAAGAC,0.0549
9,AACGTTGT,-0.0929
10,CGAAGACG,0.134
11,CTCTGGCA,-0.178
12,CTTTTACC,0.039
13,AATCAGCC,-0.121
14,TTCTTCAA,-0.124
15,TAAGATAA,-0.124
16,CTGTTGTC,0.00406
17,ATCTTGAA,-0.0822
18,AGGGTACA,-0.2
19,ACAGGGTC,-0.0349
20,CGTCTTAA,-0.191
21,GTTTATGA,-0.0773
22,ATGAACCA,-0.0664
23,ATCAGCAT,-0.0349
24,ACGAGGAG,-0.242
25,AAGTGGGC,-0.124

row,Sequence,PBM E-score
1,AAAAGTTT,-0.0921
2,CGACCTCA,-0.181
3,CCCTACGA,-0.254
4,CATGTGTC,-0.184
5,CCCAGAGA,-0.233
6,AATATACC,0.0793
7,ACCATACC,0.0757
8,ACTCCTAC,0.0382
9,AGACTCGG,0.126
10,CTGCCCAC,-0.24
11,GCATAAGC,-0.11
12,CAACATTA,-0.151
13,ATACCAAG,0.0375
14,ACGTCGAC,-0.122
15,ACCACTCT,-0.243
16,TGCGAGAA,-0.0828
17,CCTACTAA,0.00789
18,ACTTATCG,0.137
19,CCGGTTCC,0.343
20,CGAGCCCG,0.134
21,CCGTGGAA,0.255
22,CCTGGCAG,-0.32
23,CCCTAACC,-0.0438
24,TATGCTGA,-0.113
25,ACTGCAAA,-0.0753

row,Sequence,PBM E-score
1,CACTTGTA,-0.208
2,TAACTGAA,-0.178
3,TTAGAAAA,0.00204
4,ACTTTTCG,0.0993
5,CTGAGCTA,-0.145
6,GCAGTGCA,-0.178
7,ACCACGGA,0.341
8,CAGTTCAC,-0.0673
9,AGAGGCAC,-0.23
10,CACACAAA,-0.188
11,GTGCGCGA,0.145
12,ATATTGTG,-0.181
13,ATTAACAG,-0.168
14,GTCAGCTA,-0.379
15,GTATGGCA,-0.204
16,CAGTATCA,-0.185
17,ATGCCACG,-0.0392
18,ACGACAAG,-0.225
19,GACAGTCC,0.0326
20,CTTCGAGA,-0.25
21,GTCAAAAA,-0.166
22,AAAGTGAC,-0.102
23,CCTAGTCA,-0.332
24,TAAATATA,0.0739
25,ACTGGCCT,0.0103

row,Sequence,PBM E-score
1,GCTTGGCA,-0.34
2,CGCTGATA,0.00244
3,ACGGCTGG,-0.112
4,ACAGGCGG,0.193
5,AGGTACGG,0.0825
6,CAGAGTAG,-0.16
7,ATGACATG,-0.263
8,ATAACTTA,-0.18
9,CCCCGCCG,0.356
10,GAGTTGTA,0.0552
11,CATTAACA,-0.0451
12,CGACTGAG,-0.181
13,AGTGGAAT,0.0572
14,CCTAACGC,0.0801
15,CATCAGTA,-0.233
16,AGCTGAAT,-0.156
17,AACCGAGG,-0.189
18,CGTTCCTC,0.134
19,CACTGTTA,-0.232
20,ACCGCTGC,-0.0483
21,CATTGTAA,-0.116
22,CATCATGA,-0.183
23,ACGACTCC,-0.0232
24,AACCGCAG,-0.0582
25,ACAGCTGC,-0.166

row,Sequence,PBM E-score
1,ATAACCTG,-0.188
2,ATGATTGA,-0.215
3,CTGACCTA,-0.183
4,GGAGGGCC,0.19
5,ACCACACA,-0.147
6,CCACGCAC,-0.0469
7,ATATGGTC,-0.00161
8,ATCTGCCA,-0.139
9,CTCGCTTA,0.00111
10,AAATTGTT,0.00433
11,ATACCTCG,-0.0876
12,CCTATCGC,0.0771
13,AAGCGGGC,0.0848
14,AGACGGCA,0.111
15,ATGGCGCC,0.083
16,AATCGCGA,0.122
17,CCGATCCG,0.424
18,TATGTCAA,0.109
19,AAGTCGCA,-0.00263
20,CCATAAGC,-0.105
21,CAGCACTG,-0.0915
22,GGCAAGGA,0.0422
23,CCGGTAAA,0.383
24,AAGAGAGC,-0.14
25,ACTCGACC,-0.0462

row,Sequence,PBM E-score
1,ATAGATAA,0.0665
2,CACTGTAG,-0.0461
3,AGAGCGCC,0.0193
4,AGTACCGA,0.188
5,GCCACAAC,-0.0472
6,CCACAGGC,-0.306
7,AGCCATCG,0.0731
8,GACTGATC,-0.125
9,AAGCCCGC,0.266
10,ACGAGCCA,-0.224
11,GATTGACC,-0.0654
12,GATTGACA,-0.0352
13,AGGGTCTG,-0.203
14,AGTCTAAT,-0.157
15,CAGACCAG,-0.181
16,CCTGTGCA,-0.189
17,AGACATTC,-0.121
18,CCAAAGAA,-0.0951
19,CATCGATA,0.0361
20,CGCCGACG,0.339
21,ACACCCCC,-0.133
22,GTGGGAAC,-0.189
23,GGCGCCAC,0.0927
24,CAGCTTCC,-0.0366
25,TGGATACA,-0.256

row,Sequence,PBM E-score
1,AAAGTAAG,-0.263
2,CATCGGGC,0.211
3,ACGACTAA,-0.226
4,GCCAGCAA,-0.1
5,CCCGTTGA,-0.0405
6,GGCGGACC,0.413
7,CTAAACAC,-0.033
8,AGGGATCG,-0.0441
9,CACCTCAG,-0.255
10,CAAGGCCA,-0.211
11,CGTGAGGC,-0.0809
12,GGCGGGAA,0.236
13,ACGACTAT,-0.191
14,CTCATCCC,-0.0552
15,ACCGCCCT,-0.0338
16,CAGATTGC,-0.172
17,ATTTAGTC,0.126
18,GCCAACTA,-0.167
19,CGAAAAGC,-0.0191
20,CCATTCGC,-0.127
21,TGTCGTAA,-0.3
22,CCCGTGTC,0.223
23,CAGAGGAA,-0.153
24,CACGGTCG,-0.0763
25,TCTAGGCA,-0.137

row,Sequence,PBM E-score
1,CTGTCTAA,-0.0463
2,TCCAAGCA,-0.0596
3,GATTCCGC,0.355
4,ACGGTGGG,0.062
5,ATCGTAAC,0.108
6,CGGTACCG,0.38
7,GGCTTTTA,0.114
8,GCTGGTCC,0.036
9,AATATGTC,-0.0476
10,CGCGAGGA,0.0533
11,ACTTGTAA,-0.144
12,AAATAAGC,-0.104
13,TGACAACA,-0.219
14,ACTAGGCC,-0.126
15,AGTAAAGG,0.0688
16,AGAGGTGG,-0.0634
17,CACGCGAG,-0.0695
18,GAGCAGAC,-0.166
19,CACATGCC,-0.0681
